{"source": "the supplement of paper PMC12217912", "parents": {"B1": {"name": "TEV protease; numbered along this chain (parent)", "chain": "MGESLFKGPRDYNPISSSICHLTNESDGHTTSLYGIGFGPFIITNKHLFRRNNGTLVVQSLHGVFKVKDTTTLQQHLVDGRDMIIIRMPKDFPPFPQKLKFREPQREERICLVTTNFQTKSMSSMVSDTSCTFPSGDGIFWKHWIQTKDGQCGSPLVSTRDGFIVGIHSASNFTNTNNYFTSVPKNFMELLTNQEAQQWVSGWRLNADSVLWGGHKVFMVKPEEPFQPVKEATQL"}}, "variants_of": "B1", "assay": "raw area under fraction-flipped curve 0-4 h after induction (AUC4h, not background-subtracted), DNA-recorder readout of cleavage of the substrate (dimensionless); higher = more cleavage of the substrate by the protease variant", "details": "temperature: 34 °C; time window: 0-4 h after rhamnose induction", "note": "The other results are listed elsewhere or left out. The full chains were built here from the parent and the listed change. Values near 0.05 are background.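 Note: Bxb1 expression induced with 0.2% (w/v) L-rhamnose at OD600 near 0.5, cultures sampled hourly, flipped fraction per protease–substrate barcode pair counted by paired-end Illumina sequencing.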"}
{"variant": "Q59V", "values": [{"measurement": "area with substrate ENLCFQS", "result": 0.0698}, {"measurement": "area with substrate ENLFFQS", "result": 0.0455}, {"measurement": "area with substrate ENLHFQS", "result": 0.0547}, {"measurement": "area with substrate ENLIFQS", "result": 0.0839}, {"measurement": "area with substrate ENLNFQS", "result": 0.0669}, {"measurement": "area with substrate ENLRFQS", "result": 0.0778}, {"measurement": "area with substrate ENLSFQS", "result": 0.0663}, {"measurement": "area with substrate ENLTFQS", "result": 0.073}, {"measurement": "area with substrate ENLVFQS", "result": 0.0927}]}
{"variant": "K148N", "values": [{"measurement": "area with substrate ENLCFQS", "result": 0.0656}, {"measurement": "area with substrate ENLDFQS", "result": 0.0581}, {"measurement": "area with substrate ENLEFQS", "result": 0.0612}, {"measurement": "area with substrate ENLFFQS", "result": 0.0812}, {"measurement": "area with substrate ENLGFQS", "result": 0.106}, {"measurement": "area with substrate ENLIFQS", "result": 0.0677}, {"measurement": "area with substrate ENLLFQS", "result": 0.0636}, {"measurement": "area with substrate ENLMFQS", "result": 0.0717}, {"measurement": "area with substrate ENLNFQS", "result": 0.0731}, {"measurement": "area with substrate ENLPFQS", "result": 0.0518}, {"measurement": "area with substrate ENLSFQS", "result": 0.0706}, {"measurement": "area with substrate ENLVFQS", "result": 0.0657}]}
{"variant": "V57Y", "values": [{"measurement": "area with substrate ENLCFQS", "result": 0.0671}, {"measurement": "area with substrate ENLDFQS", "result": 0.0759}, {"measurement": "area with substrate ENLEFQS", "result": 0.0584}, {"measurement": "area with substrate ENLFFQS", "result": 0.0759}, {"measurement": "area with substrate ENLGFQS", "result": 0.0631}, {"measurement": "area with substrate ENLHFQS", "result": 0.0873}, {"measurement": "area with substrate ENLIFQS", "result": 0.0847}, {"measurement": "area with substrate ENLKFQS", "result": 0.0807}, {"measurement": "area with substrate ENLLFQS", "result": 0.0824}, {"measurement": "area with substrate ENLNFQS", "result": 0.0841}, {"measurement": "area with substrate ENLPFQS", "result": 0.0594}, {"measurement": "area with substrate ENLQFQS", "result": 0.0525}, {"measurement": "area with substrate ENLRFQS", "result": 0.0747}, {"measurement": "area with substrate ENLSFQS", "result": 0.0561}, {"measurement": "area with substrate ENLVFQS", "result": 0.0743}, {"measurement": "area with substrate ENLWFQS", "result": 0.0559}]}
{"variant": "F140I", "values": [{"measurement": "area with substrate ENLCFQS", "result": 0.0545}, {"measurement": "area with substrate ENLDFQS", "result": 0.056}, {"measurement": "area with substrate ENLEFQS", "result": 0.0552}, {"measurement": "area with substrate ENLFFQS", "result": 0.0576}, {"measurement": "area with substrate ENLGFQS", "result": 0.0763}, {"measurement": "area with substrate ENLHFQS", "result": 0.0566}, {"measurement": "area with substrate ENLKFQS", "result": 0.0622}, {"measurement": "area with substrate ENLLFQS", "result": 0.057}, {"measurement": "area with substrate ENLNFQS", "result": 0.0585}, {"measurement": "area with substrate ENLPFQS", "result": 0.0664}, {"measurement": "area with substrate ENLQFQS", "result": 0.0746}, {"measurement": "area with substrate ENLRFQS", "result": 0.0603}, {"measurement": "area with substrate ENLSFQS", "result": 0.0654}, {"measurement": "area with substrate ENLVFQS", "result": 0.0558}, {"measurement": "area with substrate ENLWFQS", "result": 0.0511}]}
{"variant": "C111K", "values": [{"measurement": "area with substrate ENLCFQS", "result": 0.0411}, {"measurement": "area with substrate ENLEFQS", "result": 0.0664}, {"measurement": "area with substrate ENLFFQS", "result": 0.0903}, {"measurement": "area with substrate ENLHFQS", "result": 0.0516}, {"measurement": "area with substrate ENLIFQS", "result": 0.0782}, {"measurement": "area with substrate ENLKFQS", "result": 0.118}, {"measurement": "area with substrate ENLNFQS", "result": 0.0606}, {"measurement": "area with substrate ENLRFQS", "result": 0.0781}, {"measurement": "area with substrate ENLSFQS", "result": 0.0776}, {"measurement": "area with substrate ENLTFQS", "result": 0.0413}]}
{"variant": "G63M", "values": [{"measurement": "area with substrate ENLCFQS", "result": 0.066}, {"measurement": "area with substrate ENLDFQS", "result": 0.0612}, {"measurement": "area with substrate ENLEFQS", "result": 0.0613}, {"measurement": "area with substrate ENLFFQS", "result": 0.0777}, {"measurement": "area with substrate ENLHFQS", "result": 0.0669}, {"measurement": "area with substrate ENLIFQS", "result": 0.0643}, {"measurement": "area with substrate ENLKFQS", "result": 0.061}, {"measurement": "area with substrate ENLLFQS", "result": 0.0767}, {"measurement": "area with substrate ENLPFQS", "result": 0.0694}, {"measurement": "area with substrate ENLQFQS", "result": 0.071}, {"measurement": "area with substrate ENLRFQS", "result": 0.0641}, {"measurement": "area with substrate ENLSFQS", "result": 0.0608}, {"measurement": "area with substrate ENLVFQS", "result": 0.0734}, {"measurement": "area with substrate ENLWFQS", "result": 0.0623}]}
{"variant": "T132S", "values": [{"measurement": "area with substrate ENLCFQS", "result": 0.0319}, {"measurement": "area with substrate ENLDFQS", "result": 0.0619}, {"measurement": "area with substrate ENLFFQS", "result": 0.0705}, {"measurement": "area with substrate ENLHFQS", "result": 0.0645}, {"measurement": "area with substrate ENLKFQS", "result": 0.0901}, {"measurement": "area with substrate ENLNFQS", "result": 0.0775}, {"measurement": "area with substrate ENLWFQS", "result": 0.068}]}
{"variant": "I85K", "values": [{"measurement": "area with substrate ENLCFQS", "result": 0.0669}, {"measurement": "area with substrate ENLDFQS", "result": 0.0564}, {"measurement": "area with substrate ENLEFQS", "result": 0.0764}, {"measurement": "area with substrate ENLFFQS", "result": 0.0693}, {"measurement": "area with substrate ENLHFQS", "result": 0.0599}, {"measurement": "area with substrate ENLKFQS", "result": 0.061}, {"measurement": "area with substrate ENLLFQS", "result": 0.0589}, {"measurement": "area with substrate ENLPFQS", "result": 0.0498}, {"measurement": "area with substrate ENLTFQS", "result": 0.0695}, {"measurement": "area with substrate ENLVFQS", "result": 0.0412}, {"measurement": "area with substrate ENLWFQS", "result": 0.0505}]}
{"variant": "W144L", "values": [{"measurement": "area with substrate ENLCFQS", "result": 0.118}, {"measurement": "area with substrate ENLEFQS", "result": 0.0568}, {"measurement": "area with substrate ENLFFQS", "result": 0.0809}, {"measurement": "area with substrate ENLIFQS", "result": 0.0673}, {"measurement": "area with substrate ENLKFQS", "result": 0.0745}, {"measurement": "area with substrate ENLNFQS", "result": 0.0746}, {"measurement": "area with substrate ENLPFQS", "result": 0.0489}, {"measurement": "area with substrate ENLSFQS", "result": 0.0546}, {"measurement": "area with substrate ENLVFQS", "result": 0.105}, {"measurement": "area with substrate ENLWFQS", "result": 0.0848}]}
{"variant": "F133D", "values": [{"measurement": "area with substrate ENLCFQS", "result": 0.0759}, {"measurement": "area with substrate ENLDFQS", "result": 0.062}, {"measurement": "area with substrate ENLEFQS", "result": 0.0573}, {"measurement": "area with substrate ENLFFQS", "result": 0.0854}, {"measurement": "area with substrate ENLHFQS", "result": 0.062}, {"measurement": "area with substrate ENLMFQS", "result": 0.0686}, {"measurement": "area with substrate ENLNFQS", "result": 0.054}, {"measurement": "area with substrate ENLPFQS", "result": 0.0538}, {"measurement": "area with substrate ENLSFQS", "result": 0.0524}, {"measurement": "area with substrate ENLVFQS", "result": 0.0798}]}
{"variant": "Q118N", "values": [{"measurement": "area with substrate ENLCFQS", "result": 0.092}, {"measurement": "area with substrate ENLDFQS", "result": 0.0588}, {"measurement": "area with substrate ENLEFQS", "result": 0.0668}, {"measurement": "area with substrate ENLFFQS", "result": 0.0977}, {"measurement": "area with substrate ENLHFQS", "result": 0.0793}, {"measurement": "area with substrate ENLNFQS", "result": 0.0614}, {"measurement": "area with substrate ENLRFQS", "result": 0.0406}, {"measurement": "area with substrate ENLSFQS", "result": 0.0663}, {"measurement": "area with substrate ENLVFQS", "result": 0.078}]}
{"variant": "Q74G", "values": [{"measurement": "area with substrate ENLCFQS", "result": 0.0754}, {"measurement": "area with substrate ENLDFQS", "result": 0.0562}, {"measurement": "area with substrate ENLEFQS", "result": 0.0574}, {"measurement": "area with substrate ENLFFQS", "result": 0.0969}, {"measurement": "area with substrate ENLIFQS", "result": 0.0684}, {"measurement": "area with substrate ENLKFQS", "result": 0.0718}, {"measurement": "area with substrate ENLNFQS", "result": 0.0641}, {"measurement": "area with substrate ENLPFQS", "result": 0.0591}, {"measurement": "area with substrate ENLQFQS", "result": 0.068}, {"measurement": "area with substrate ENLSFQS", "result": 0.0647}, {"measurement": "area with substrate ENLVFQS", "result": 0.0909}, {"measurement": "area with substrate ENLWFQS", "result": 0.0562}]}
{"variant": "Q74D", "values": [{"measurement": "area with substrate ENLCFQS", "result": 0.0733}, {"measurement": "area with substrate ENLDFQS", "result": 0.0567}, {"measurement": "area with substrate ENLFFQS", "result": 0.0971}, {"measurement": "area with substrate ENLGFQS", "result": 0.0695}, {"measurement": "area with substrate ENLHFQS", "result": 0.0528}, {"measurement": "area with substrate ENLKFQS", "result": 0.106}, {"measurement": "area with substrate ENLLFQS", "result": 0.0789}, {"measurement": "area with substrate ENLNFQS", "result": 0.0731}, {"measurement": "area with substrate ENLPFQS", "result": 0.0626}, {"measurement": "area with substrate ENLRFQS", "result": 0.0742}, {"measurement": "area with substrate ENLSFQS", "result": 0.0627}, {"measurement": "area with substrate ENLTFQS", "result": 0.0721}, {"measurement": "area with substrate ENLVFQS", "result": 0.103}, {"measurement": "area with substrate ENLWFQS", "result": 0.0563}]}
{"variant": "T129P", "values": [{"measurement": "area with substrate ENLCFQS", "result": 0.0806}, {"measurement": "area with substrate ENLDFQS", "result": 0.068}, {"measurement": "area with substrate ENLFFQS", "result": 0.0904}, {"measurement": "area with substrate ENLHFQS", "result": 0.0715}, {"measurement": "area with substrate ENLIFQS", "result": 0.0839}, {"measurement": "area with substrate ENLKFQS", "result": 0.071}, {"measurement": "area with substrate ENLPFQS", "result": 0.0652}, {"measurement": "area with substrate ENLQFQS", "result": 0.0627}, {"measurement": "area with substrate ENLRFQS", "result": 0.0673}, {"measurement": "area with substrate ENLSFQS", "result": 0.0658}]}
{"variant": "T114M", "values": [{"measurement": "area with substrate ENLCFQS", "result": 0.0779}, {"measurement": "area with substrate ENLDFQS", "result": 0.0618}, {"measurement": "area with substrate ENLFFQS", "result": 0.0958}, {"measurement": "area with substrate ENLHFQS", "result": 0.0728}, {"measurement": "area with substrate ENLKFQS", "result": 0.0856}, {"measurement": "area with substrate ENLLFQS", "result": 0.079}, {"measurement": "area with substrate ENLMFQS", "result": 0.068}, {"measurement": "area with substrate ENLNFQS", "result": 0.0794}, {"measurement": "area with substrate ENLPFQS", "result": 0.0466}, {"measurement": "area with substrate ENLQFQS", "result": 0.0651}, {"measurement": "area with substrate ENLRFQS", "result": 0.0583}, {"measurement": "area with substrate ENLWFQS", "result": 0.07}]}
